# The campaign covered roughly 310,000 compounds. About 2,200 (0.71%) showed an effect of 50% or more. Effects have a minus sign here. Some of the results follow.
# Molecular target: human ether-à-go-go-related gene (hERG) potassium channel (human, UniProt Q12809)
# Assay: primary screen, population patch clamp on CHO cells stably expressing hERG
# Chain of human ether-à-go-go-related gene (hERG) potassium channel (Q12809 whole entry, looked up): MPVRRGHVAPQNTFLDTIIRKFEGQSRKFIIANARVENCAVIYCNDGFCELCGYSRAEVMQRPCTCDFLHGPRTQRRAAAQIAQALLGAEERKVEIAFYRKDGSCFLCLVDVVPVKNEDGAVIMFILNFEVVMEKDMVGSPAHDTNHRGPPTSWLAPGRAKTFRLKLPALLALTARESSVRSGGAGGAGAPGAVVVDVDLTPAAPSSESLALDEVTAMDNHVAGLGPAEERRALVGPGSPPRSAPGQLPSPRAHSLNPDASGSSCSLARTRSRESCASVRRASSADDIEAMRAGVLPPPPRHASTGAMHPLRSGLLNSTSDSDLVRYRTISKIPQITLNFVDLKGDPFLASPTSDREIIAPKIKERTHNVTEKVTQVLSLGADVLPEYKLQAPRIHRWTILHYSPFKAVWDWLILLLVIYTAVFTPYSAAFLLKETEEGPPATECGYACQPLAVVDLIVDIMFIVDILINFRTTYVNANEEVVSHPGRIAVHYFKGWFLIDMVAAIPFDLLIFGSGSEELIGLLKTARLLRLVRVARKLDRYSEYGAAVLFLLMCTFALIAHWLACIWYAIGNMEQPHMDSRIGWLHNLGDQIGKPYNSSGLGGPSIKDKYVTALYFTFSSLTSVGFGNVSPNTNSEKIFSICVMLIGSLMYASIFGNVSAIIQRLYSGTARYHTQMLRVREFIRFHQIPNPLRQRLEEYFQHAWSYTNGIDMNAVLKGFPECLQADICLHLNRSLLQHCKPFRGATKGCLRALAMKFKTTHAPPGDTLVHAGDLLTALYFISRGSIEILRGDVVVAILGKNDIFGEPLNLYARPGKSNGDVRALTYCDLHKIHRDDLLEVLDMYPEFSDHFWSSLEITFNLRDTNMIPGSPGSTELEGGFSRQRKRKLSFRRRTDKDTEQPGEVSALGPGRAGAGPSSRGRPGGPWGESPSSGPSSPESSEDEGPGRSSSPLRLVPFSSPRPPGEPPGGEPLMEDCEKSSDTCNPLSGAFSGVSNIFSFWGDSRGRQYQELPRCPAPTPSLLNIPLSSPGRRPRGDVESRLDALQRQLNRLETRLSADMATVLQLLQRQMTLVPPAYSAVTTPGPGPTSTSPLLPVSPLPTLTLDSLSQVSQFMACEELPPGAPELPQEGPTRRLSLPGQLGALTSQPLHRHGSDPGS
row,Structure (SMILES),"hERG current change (%, negative = inhibition) at 1uM [%]"
1,Cn1c(CSCc2ccc(F)cc2)nnc1SCC(=O)Nc1cccc(C(=O)O)c1,15.4
2,CC1CN(S(=O)(=O)c2cccc(C(=O)OC/C(O)=C(\C#N)c3nc4ccccc4[nH]3)c2)CC(C)O1 (centres unmarked),-0.741
3,CSc1nnc2c(n1)c(C)nn2-c1cccc(C)c1,3.47
4,CCOc1ccc(NC(=O)COC(=O)c2ccc3c(c2)OCO3)cc1,9.61
5,COC(=O)CCC(=O)OC1(C)C(=O)C=C2C=C(C3CC3)N(Cc3ccco3)C=C2C1=O (centres unmarked),8.69
6,O=C(NCC1CCCO1)C1CCN(C2CCN(C3CCCCCC3)CC2)CC1 (centres unmarked),10.6
7,Cc1cc[n+](-c2nc([O-])sc2/C=N/Nc2ccc([N+](=O)[O-])cc2)cc1,11.2
8,O=C(CSc1nc2ccc(Nc3nc(N4CCOCC4)nc(N4CCOCC4)n3)cc2s1)Nc1ccccc1F,14.4
9,CCC(=O)Nc1ccc(NC(=O)c2cccc3c(Br)cccc23)cc1,4.85
10,Cc1noc2ncnc(Oc3ccccc3Cl)c12,17.6
11,CCOC(=O)c1c(NC(=O)c2cccs2)sc(C(=O)N(C)C)c1C,0.872
12,Cc1cccc(NCCC(=O)c2ccc([N+](=O)[O-])cc2)c1C,5.54
13,CCc1c(O)nc(SCC(=O)Nc2ccc(Br)cc2)n(-c2ccc(C)cc2)c1=O,13
14,COc1ccc2c(c1)c1ncn(CCN3CCCC3)c(=O)c1n2C,1.62
15,O=C1c2ccccc2-c2nnc(-c3ccc(O)cc3)cc21,5.44
16,NC(=O)c1ccsc1NC(=O)COC(=O)Cc1ccccc1,7.04
17,O=C(CCCNS(=O)(=O)c1cccc2nsnc12)NC1CCCCC1,0.151
18,CC(=O)Nc1c2c(nn1-c1ccccc1C)CSC2,12.8
19,Clc1ccc(N=C2SCC3CCCCN23)cc1 (centres unmarked),15.3
20,CCOc1cc(C(c2c(C)[nH][nH]c2=O)c2c(C)[nH][nH]c2=O)ccc1OS(=O)(=O)c1ccccc1,-3.72
21,O=C(N/N=C/c1ccco1)C1CC1c1ccccc1 (centres unmarked),6.62
22,O=C(N/N=C/c1ccccc1)c1ccc(OCc2ccccc2)cc1,2.61
23,O=C(NCCNC(=O)c1ccc(Cl)cc1Cl)c1ccco1,12

row,Structure (SMILES),"hERG current change (%, negative = inhibition) at 1uM [%]"
1,Cc1ccc(C(=O)Nc2onc(C)c2C#N)cc1,5.73
2,CCCCn1c(N)c(N(CC)C(=O)c2cc(CC)c(C)s2)c(=O)[nH]c1=O,-2.08
3,CCCCC(O)(CCCC)C(=O)N/N=C(\C)c1ccc(Cl)cc1,-16.3
4,O/N=C/c1ccc(-c2cc(Cl)ccc2Cl)o1,2.88
5,Cc1ccc(O)c(N)c1,4.74
6,O=C(Cn1ncc2c(=O)oc3ccccc3c21)NCC1COc2ccccc2O1 (centres unmarked),6.8
7,O=C(NCc1ccccc1)c1ccccc1NC(=O)C1CCCCC1,22.4
8,CCN1C(=O)[C@H]2[C@@H](c3ccc(-c4ccccc4)cc3)N[C@@](Cc3ccccc3)(C(=O)OC)[C@H]2C1=O.O=C(O)C(F)(F)F,2.63
9,Cc1ccc(O)c(NC(=O)c2ccc3c(c2)C(=O)N(Cc2ccco2)C3=O)c1,9.74
10,Cc1cnc(NC2=NCCC2)s1,10.6
11,COc1ccc(C(=O)NCCS(=O)(=O)N(C)C2CCCCC2)cc1,-0.94
12,Cc1cc(C)c(-n2[nH]nnc2=S)c(C)c1,8.4
13,CC(NC(=O)Nc1ccc(F)cc1F)c1ccncc1 (centres unmarked),9.09
14,COc1ccccc1N(C(=O)CN1C(=O)c2ccccc2S1(=O)=O)C(C(=O)NCC1CCCO1)c1ccc(F)cc1 (centres unmarked),8.21
15,Cc1nc(CN2CCN(C(=O)c3ccc(C(C)(C)C)cc3)CC2)cs1.Cl,4.42
16,CC(NS(=O)(=O)c1ccc(N)cc1)C1CC2CCC1C2 (centres unmarked),9.12
17,CCOC(=O)Cc1csc(NS(=O)(=O)c2ccc(OC)cc2)n1,0.922
18,COCCCNC(=O)Nc1ccc2c(c1)N(C)C(=O)CS2,3.56
19,NS(=O)(=O)c1ccc(CNC(=O)Cc2c(F)cccc2Cl)cc1,20.6
20,CCCc1nc(SCC(=O)N2CCc3ccccc3C2)c2ccccc2n1,0.708
21,Cc1cc(C)nc(SCCN2CCOCC2)n1.Cl,12.4
22,COCc1cc(OC(=O)N(C)C)nc(-c2ccccc2)n1,10.9
23,C#CCN1C(=O)S/C(=C\c2ccc(-c3ccc(Cl)c(C(=O)O)c3)o2)C1=O,17.2

row,Structure (SMILES),"hERG current change (%, negative = inhibition) at 1uM [%]"
1,CCOC(=O)C1CCN(S(=O)(=O)c2cccc(-c3cn4cccnc4n3)c2)CC1,4.76
2,O=c1c(Cl)c(NCCO)cnn1-c1cccc(Cl)c1,13.3
3,COc1ccc([N+](=O)[O-])cc1-n1cccc1,5.41
4,CCCCc1ccc(NC(=S)NCc2cccc(OC)c2)cc1,7.95
5,NC(=O)NNC(=S)Nc1cccc2ccccc12,14.5
6,Cc1cccc(NC(=O)COc2ccc(/C=C\c3[nH]c(=O)[nH]c(=O)c3[N+](=O)[O-])cc2)c1,18.9
7,C[n+]1c(-c2ccccc2)c2cc(N)ccc2c2ccc(N)cc21.[Br-],15.1
8,COc1cc(NC(=O)CCc2c(C)nc3nc(C)nn3c2C)cc(OC)c1,-12.9
9,O=C(O)c1ccc(Cl)c(S(=O)(=O)Nc2ccccc2C(=O)Nc2ccc(Cl)cc2)c1,14.9
10,Cc1ccc(C)c(S(=O)(=O)N(C)C2CCS(=O)(=O)C2)c1 (centres unmarked),7.93
11,CCOC(=O)c1c(-c2ccc(OC)cc2)oc2cc(Br)c(O)cc12,13.8
12,CCN1CCN(c2ccc(NC(=O)c3ccc(F)cc3)cc2Cl)CC1,-66.8
13,CCCC(C)c1nc(C(N)=O)c2[nH]c(=O)n(-c3ccc(OC)c(OC)c3)c2n1 (centres unmarked),6.1
14,NS(=O)(=O)c1ccc(SCc2ccccc2)nc1,12.8
15,CCC(c1nnnn1C(C)(C)CC)N1CCN(c2ccccc2F)CC1 (centres unmarked),21
16,COc1ccc(OC)c(NS(=O)(=O)c2c(C(=O)N3CCCCCC3)c(C)n(C)c2C)c1,14.7
17,COC(=O)/C=C/C(=O)Nc1cccc(C(F)(F)F)c1,7.93
18,CC(=O)N1c2ccc(S(=O)(=O)N3CCC(C(=O)NC4CCCCC4C)CC3)cc2CC1C (centres unmarked),13.4
19,O=C(NCCO)C(=O)NCC1OCCCN1S(=O)(=O)c1ccc2c(c1)OCCO2 (centres unmarked),-6.45
20,CS(=O)(=O)c1ccc2nc(NC(=O)CN3CCOCC3)sc2c1,19.1
21,O=C(c1cccc(S(=O)(=O)N2CCOCC2)c1)N1CCCC(C(F)(F)F)C1 (centres unmarked),6.63
22,C=CCOc1cccc(C2C(C(=O)c3ccco3)=C(O)C(=O)N2Cc2ccncc2)c1 (centres unmarked),23.9
23,CC(=O)Nc1cccc(Oc2cc(C#N)c(C#N)cc2N2CCCCCC2)c1,8.28

row,Structure (SMILES),"hERG current change (%, negative = inhibition) at 1uM [%]"
1,COc1ccccc1-c1nnc(N(C)C(=O)C2CCCO2)s1 (centres unmarked),9.47
2,N#C/C(=C/c1ccc(CNS(=O)(=O)c2ccccc2)o1)C(=O)NCc1ccccc1,-2.31
3,O=C(NCCc1ccccc1)/C(=C\c1ccc([N+](=O)[O-])cc1)NC(=O)c1ccco1,-59
4,COc1ccc(NC(=O)c2ccco2)cc1NC(=O)COc1ccccc1,11.6
5,CCn1c(Cc2ccccc2)nnc1SCC(=O)Nc1ccccc1,5.8
6,Cc1ccc(NC(=O)CCNS(=O)(=O)c2ccc3c(c2)CCC(=O)N3)cc1F,16.1
7,S=C(Nc1ccccc1)Nc1nc2ccccc2n1CCOc1ccc(Cl)cc1,7.29
8,CC(=O)c1cccc(OC(=O)C2=CC=CN3CCS(=O)(=O)N=C23)c1,7.76
9,COc1ccc(NC(=O)Nc2ccc(C(=O)N3CCOCC3)cc2)cc1,9.81
10,Nc1nonc1C(=O)NCCNC(=O)c1cccc(Cl)c1,8.34
11,CCOc1cc(S(=O)(=O)Nc2ccccn2)ccc1F,8.64
12,N#C/C(=C\c1ccccc1)C(=O)Nc1ccccn1,7.18
13,CCN(CC)CCn1c(=S)[nH]c2ccc(Cl)cc2c1=O,-49
14,CCCCCC1CC(=O)N(Cc2ccccc2)C(=O)N1 (centres unmarked),-1.51
15,COc1ccc(OC)c(NC(=O)Nc2ccc3c(c2)OCO3)c1,15.1
16,CN(C)c1oc(-c2ccccc2F)nc1C#N,7.02
17,CCOc1cccc2sc(N(CCCN(C)C)C(=O)c3ccc(S(=O)(=O)N4CCc5ccccc5C4)cc3)nc12.Cl,10
18,CN1CCN(c2ccc(C(=O)c3cn(-c4ccc(F)c(Cl)c4)nn3)cc2)CC1,13.3
19,Cc1cc(/C=C(\C#N)C(=O)OCC(=O)NC(=O)NC(C)(C)C)c(C)n1CCC(C)C,9.54
20,CCCCCCc1nnc(NC(=O)c2ccco2)s1,12.2
